Measurements taken from the BET-seq Pho4 binding data (Le et al. 2018).
The other results are listed elsewhere or left out. Values were computed here from the reads of four pooled replicates and scatter widely.

target: T1, Pho4 (S. cerevisiae) (UniProt P07270); experiment: relative binding free energy (BET-seq); higher = weaker binding; details: reference: library average
T1 sequence: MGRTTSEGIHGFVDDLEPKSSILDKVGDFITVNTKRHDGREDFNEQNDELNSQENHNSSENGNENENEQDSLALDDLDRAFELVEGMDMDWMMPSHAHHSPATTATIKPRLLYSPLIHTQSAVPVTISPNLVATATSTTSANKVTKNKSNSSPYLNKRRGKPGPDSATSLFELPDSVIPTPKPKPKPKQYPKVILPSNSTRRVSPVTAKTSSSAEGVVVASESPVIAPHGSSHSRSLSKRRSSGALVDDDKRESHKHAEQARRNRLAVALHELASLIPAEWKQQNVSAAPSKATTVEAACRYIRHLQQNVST

Sequence	relative binding free energy [kcal/mol]
GTTAGCACGTGGGTTC	-0.16
GTGTGCACGTGTGAAA	-0.01
TTATTCACGTGGTGGC	0.32
GTGAACACGTGGTTCG	0.11
TGTGACACGTGATGTG	0.06
TGCGGCACGTGGCTGT	-0.19
CGGGACACGTGTAGTA	0.03
AGCATCACGTGTGTAG	0
GCATGCACGTGTATGG	0.07
GGTGGCACGTGGCTTT	-0.08
GATGTCACGTGTGAGT	0.15
GTAGTCACGTGGGAGG	0.02
AATATCACGTGAGTGT	0.36
AATTTCACGTGGATGA	0.18
GACGTCACGTGGGAGG	0.12
GGTGGCACGTGACTGC	0.1
ATTTTCACGTGAATCG	0.42
ATCTGCACGTGTAGTG	0.06
TGACGCACGTGTTTGG	-0.05
TTGGGCACGTGTGAGG	0
TGATGCACGTGAGTAG	0.16
ATGCTCACGTGGATGT	0.12
AGAGTCACGTGGATGG	0.06

Sequence	relative binding free energy [kcal/mol]
ATATACACGTGAGTCG	0.35
GCCGCCACGTGGGTGG	-0.1
TTGGGCACGTGAGGCA	0.05
CGGGTCACGTGTGAAA	0.18
CGGTGCACGTGGAGAG	-0.02
AAACGCACGTGGTGTT	-0.19
TAAGGCACGTGGATGA	-0.06
CTCGTCACGTGGAGTG	0.03
TTAGTCACGTGTAGAG	0.06
GATTACACGTGATTGT	0.22
TAAAGCACGTGTGGTA	-0.11
TGATGCACGTGCCGTG	-0.08
ATGGGCACGTGGATGA	-0.05
GGGGACACGTGCGGTC	-0.05
TTGATCACGTGTTCTT	0.17
CGCGTCACGTGTTGGT	-0.11
GTGATCACGTGCGGGT	0.02
TTAGGCACGTGGTGAT	-0.16
ATCGGCACGTGGTCGG	-0.21
GCGCTCACGTGAGGGT	0.27
GGCAGCACGTGTGCGT	-0.08
GTTTTCACGTGAATTA	0.35
GTATACACGTGTGCGG	-0.08

Sequence	relative binding free energy [kcal/mol]
GAGGACACGTGGAGGT	0.15
CTAAACACGTGGGGGA	-0.01
CTATGCACGTGTTGGT	-0.1
ATGCTCACGTGTTATG	0.22
TTGAGCACGTGGAGTT	-0.07
GGGGTCACGTGTATGA	0.2
TAAGGCACGTGGTGGG	-0.21
GTTAACACGTGGAGTA	0.18
TTCTGCACGTGGCGGG	0.02
TGGGTCACGTGTGGAT	0.2
GTGGACACGTGTAGGG	0.02
AGGGACACGTGATATT	0.15
AGAGTCACGTGACTGG	0.19
AGCGACACGTGTATTG	0.06
GTGATCACGTGGATGA	0.21
GCGTTCACGTGTTTTT	0.24
TGTAACACGTGAGGGA	0.16
GGTAACACGTGTGGTA	0.01
GTGTGCACGTGATTTA	0.16
CTTTTCACGTGTTGGC	0.36
AAGGGCACGTGTGGTT	-0.02
TCATTCACGTGTATGG	0.33
GAGATCACGTGTCGGG	0.13

Sequence	relative binding free energy [kcal/mol]
TAATTCACGTGGTGAA	0.15
GGCTTCACGTGTGTGG	0.33
TGGTGCACGTGTGTTG	0.01
GGAGGCACGTGTAGTG	-0.11
TTGGACACGTGAAATA	0.29
CTGAGCACGTGGGGGC	-0.29
GGGCACACGTGATTGG	0.19
AAATGCACGTGGTGGG	-0.06
TTGATCACGTGGAGTA	0.24
TGGAGCACGTGTATGT	-0.07
TTTGACACGTGAAGGT	0.11
AGCGTCACGTGTGGTT	0
GTGTGCACGTGTTTTG	0.05
GTCTTCACGTGTTGCG	0.27
GATATCACGTGCGGTG	0.1
ATCGGCACGTGTGTCG	-0.09
GTCGTCACGTGGTGAT	0.04
TATGTCACGTGCGAAG	0.06
GACTGCACGTGTAGTT	0.05
GGGGCCACGTGGTGGG	-0.11
GTCTGCACGTGTGGCG	0
TGGACCACGTGGGTGG	-0.25
TTTTACACGTGGCTAA	0.15

Sequence	relative binding free energy [kcal/mol]
AAAAGCACGTGTTGGG	0.03
GTAGGCACGTGGTGTA	-0.14
TGAGTCACGTGTGCTC	0.15
TGTCACACGTGTTTAG	0.09
TGTTTCACGTGGGGTC	0.16
TAAGACACGTGTGGAA	0.09
GGGTACACGTGGAGAA	0.17
GATTACACGTGATGGT	0.23
GGTGGCACGTGTGTGT	-0.02
GATGGCACGTGGCGTG	-0.03
TGGCTCACGTGGCTTG	0.2
TGGTACACGTGGGTGT	-0.03
AGTGTCACGTGTCGGT	0.13
CAGGACACGTGTGGAG	0.08
CTGTGCACGTGGCCGG	-0.03
TGCAGCACGTGTGTGG	-0.06
TAGATCACGTGTGCTT	0.08
ATTATCACGTGTGCAG	0.17
TTAGTCACGTGGTCTG	-0.13
CAGGGCACGTGGGTGC	-0.21
GGCTTCACGTGTGGAT	0.29
TTGCGCACGTGGTGTC	-0.28
TGGGCCACGTGGGTGG	-0.25
